{"source": "paper PMC4336329", "about": "(PLoS ONE, 2015)", "note": "Out of some 310,000 compounds screened, about 2,200 (0.71%) showed an effect of 50% or more. Effects have a minus sign here. This is one part of the list."}
{"molecular_target": "human ether-à-go-go-related gene (hERG) potassium channel (human, UniProt Q12809)", "sequence (Q12809 whole entry, looked up)": "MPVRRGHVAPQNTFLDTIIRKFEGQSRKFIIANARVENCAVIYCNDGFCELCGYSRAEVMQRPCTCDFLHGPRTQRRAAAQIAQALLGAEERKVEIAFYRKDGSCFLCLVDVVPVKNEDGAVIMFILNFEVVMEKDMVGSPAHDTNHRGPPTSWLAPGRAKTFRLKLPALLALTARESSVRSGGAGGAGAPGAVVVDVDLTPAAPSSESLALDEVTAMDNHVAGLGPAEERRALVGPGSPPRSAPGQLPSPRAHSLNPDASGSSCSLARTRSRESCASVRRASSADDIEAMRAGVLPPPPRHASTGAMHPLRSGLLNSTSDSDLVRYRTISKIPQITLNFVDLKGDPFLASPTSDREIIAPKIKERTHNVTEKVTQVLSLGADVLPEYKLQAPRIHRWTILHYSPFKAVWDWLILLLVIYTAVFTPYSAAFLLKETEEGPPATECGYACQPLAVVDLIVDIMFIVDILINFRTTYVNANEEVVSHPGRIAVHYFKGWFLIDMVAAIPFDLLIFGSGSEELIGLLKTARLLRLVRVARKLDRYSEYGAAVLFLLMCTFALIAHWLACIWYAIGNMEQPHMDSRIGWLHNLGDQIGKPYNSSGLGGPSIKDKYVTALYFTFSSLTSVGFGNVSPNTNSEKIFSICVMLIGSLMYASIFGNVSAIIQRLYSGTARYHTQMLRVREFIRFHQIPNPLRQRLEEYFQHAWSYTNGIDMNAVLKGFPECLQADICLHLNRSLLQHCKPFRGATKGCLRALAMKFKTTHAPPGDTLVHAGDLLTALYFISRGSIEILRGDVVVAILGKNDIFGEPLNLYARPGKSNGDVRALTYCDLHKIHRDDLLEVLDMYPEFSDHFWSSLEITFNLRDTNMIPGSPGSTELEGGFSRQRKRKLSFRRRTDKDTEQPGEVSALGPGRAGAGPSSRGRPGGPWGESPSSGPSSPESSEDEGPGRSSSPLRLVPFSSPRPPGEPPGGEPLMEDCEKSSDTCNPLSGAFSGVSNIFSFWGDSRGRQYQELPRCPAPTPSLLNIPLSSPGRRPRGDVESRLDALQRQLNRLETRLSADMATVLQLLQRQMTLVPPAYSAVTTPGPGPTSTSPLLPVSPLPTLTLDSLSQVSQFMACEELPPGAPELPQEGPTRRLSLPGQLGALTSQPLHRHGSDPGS", "test": "primary screen, population patch clamp on CHO cells stably expressing hERG", "units": {"hERG current change (%, negative = inhibition) at 1uM": "%"}}
{"smiles": "O=c1ccc2cc(S(=O)(=O)NCCCc3ccccc3)ccc2[nH]1", "hERG current change (%, negative = inhibition) at 1uM": 11.5}
{"smiles": "CCNc1ccc(Br)cc(C(=O)/C=C/c2ccc(Cl)cc2)c1=O", "hERG current change (%, negative = inhibition) at 1uM": 1.03}
{"smiles": "COc1ccccc1CNC(=O)C(=O)c1cn(CC(=O)N2CCCC2)c2ccccc12", "hERG current change (%, negative = inhibition) at 1uM": 7.29}
{"smiles": "O=C(NCCOC(=O)c1ccccc1)c1ccccc1", "hERG current change (%, negative = inhibition) at 1uM": 13.6}
{"smiles": "CCOCCCNC(=O)C(NC(=O)c1ccc2c(c1)OCO2)c1ccc(Cl)cc1", "note": "(centres unmarked)", "hERG current change (%, negative = inhibition) at 1uM": -6.8}
{"smiles": "O=C(Nc1ccncc1)C1CCN(S(=O)(=O)c2c(Cl)cccc2Cl)CC1", "hERG current change (%, negative = inhibition) at 1uM": 1.69}
{"smiles": "COc1ccc(S(=O)(=O)NC2(C(F)(F)F)NC(=O)N(CCc3ccc(OC)c(OC)c3)C2=O)cc1", "note": "(centres unmarked)", "hERG current change (%, negative = inhibition) at 1uM": 11.9}
{"smiles": "CC(C)(O)C#Cc1ccc(C(=O)N2CCC(C(N)=O)(N3CCCCC3)CC2)cc1", "hERG current change (%, negative = inhibition) at 1uM": -4.93}
{"smiles": "O=C(COC(=O)c1ccccc1NCCO)NCCC1=CCCCC1", "hERG current change (%, negative = inhibition) at 1uM": -0.418}
{"smiles": "Cc1cc(C(=O)Nc2ccon2)cs1", "hERG current change (%, negative = inhibition) at 1uM": -5.3}
{"smiles": "CCOC(=O)c1[nH]c(C)c(C(=O)N2CCC3(CC2)OCCO3)c1C", "hERG current change (%, negative = inhibition) at 1uM": 16.3}
{"smiles": "O=C(O)CN1C(=O)NC2(CCCc3ccccc32)C1=O", "note": "(centres unmarked)", "hERG current change (%, negative = inhibition) at 1uM": 15.9}
{"smiles": "Cc1ccc(S(=O)(=O)N(C)CC(=O)NCCCc2ccccc2)cc1", "hERG current change (%, negative = inhibition) at 1uM": 8.33}
{"smiles": "Cc1ccc(NC(=O)C2CCN(C(=O)OC(C)(C)C)CC2)cc1S(=O)(=O)N1CCCCC1", "hERG current change (%, negative = inhibition) at 1uM": 0.574}
{"smiles": "Cc1cc(NC(=O)CCSc2ccccc2)ccc1Br", "hERG current change (%, negative = inhibition) at 1uM": 11.7}
{"smiles": "Cc1cccc(C(=O)Nc2nnc(S(=O)(=O)N3CCOCC3)s2)c1", "hERG current change (%, negative = inhibition) at 1uM": 14}
{"smiles": "COc1cccc(C(C)N(C)Cc2nc(COc3ccccc3)no2)c1", "note": "(centres unmarked)", "hERG current change (%, negative = inhibition) at 1uM": 12}
{"smiles": "COc1ccccc1NC(=O)Cn1ncc2c1-c1ccccc1OC2", "hERG current change (%, negative = inhibition) at 1uM": 8.02}
{"smiles": "COc1ccc(CNC(=O)CN(C)Cc2ccc(C(C)(C)C)cc2)cc1.O=C(O)C(=O)O", "hERG current change (%, negative = inhibition) at 1uM": 13.7}
{"smiles": "O=C(Cn1c(C(F)(F)F)nc2ccccc21)OCC(=O)c1c[nH]c2ccccc12", "hERG current change (%, negative = inhibition) at 1uM": 11.7}
{"smiles": "Cc1ccc(NC(=O)CCN2CCC(C(N)=O)CC2)cc1", "hERG current change (%, negative = inhibition) at 1uM": 16.5}
{"smiles": "COc1ccc2cc(C#N)c(SCC(=O)N3CC(=O)Nc4ccccc43)nc2c1", "hERG current change (%, negative = inhibition) at 1uM": 10.5}
{"smiles": "O=C(Nc1ccc2c(c1)C(=O)NC2=O)c1ccc2ncsc2c1", "hERG current change (%, negative = inhibition) at 1uM": -2.01}
{"smiles": "Cc1ccc(C(=O)NCCn2cc(SCC(=O)N3CCOCC3)c3ccccc32)cc1", "hERG current change (%, negative = inhibition) at 1uM": 15.2}
{"smiles": "OCC1(CCc2ccccc2)CCCN(CCCc2ccccc2)C1", "note": "(centres unmarked)", "hERG current change (%, negative = inhibition) at 1uM": -57.6}
{"smiles": "COc1ccccc1/C=C/C(=O)NCC(=O)N/N=C/c1cc(Br)ccc1OC", "hERG current change (%, negative = inhibition) at 1uM": 0.37}
{"smiles": "Cn1nc(-c2ccccc2)cc1NS(=O)(=O)c1ccc(C#N)cc1", "hERG current change (%, negative = inhibition) at 1uM": 14.7}
{"smiles": "Cc1ccc(Cl)cc1NC(=O)C1CCCCC1C(=O)O", "note": "(centres unmarked)", "hERG current change (%, negative = inhibition) at 1uM": 7.86}
{"smiles": "CCc1cc(C(=O)N2CCCC(CNS(=O)(=O)c3cccs3)C2)n(C)n1", "note": "(centres unmarked)", "hERG current change (%, negative = inhibition) at 1uM": 9.55}
{"smiles": "CCn1c(CC(=O)Nc2ccc(F)cc2)nnc1SCC(=O)NC1CCCC1", "hERG current change (%, negative = inhibition) at 1uM": 6.33}
{"smiles": "CCOC(=O)Cn1c(N2CCOCC2)nc2c1c(=O)[nH]c(=O)n2C", "hERG current change (%, negative = inhibition) at 1uM": 13.3}
{"smiles": "O=C1c2ccccc2C(=O)N1c1nc(-c2cccs2)cs1", "hERG current change (%, negative = inhibition) at 1uM": 4.33}
{"smiles": "S=C(NC1CC2CCC1C2)N1CCN(c2cccc(Cl)c2)CC1", "note": "(centres unmarked)", "hERG current change (%, negative = inhibition) at 1uM": 8.82}
{"smiles": "CC(=O)c1cccc(NC(=O)CCC2CCCC2)c1", "hERG current change (%, negative = inhibition) at 1uM": 11.2}
{"smiles": "O=C(c1ccc2[nH]c(=O)c(=O)[nH]c2c1)N1CCN(c2ccccc2)CC1", "hERG current change (%, negative = inhibition) at 1uM": 5.9}
{"smiles": "COC(=O)CN1C(c2ccc(OC)cc2)=Nc2ccc(Cl)cc2C1c1ccccc1", "note": "(centres unmarked)", "hERG current change (%, negative = inhibition) at 1uM": 4.65}
{"smiles": "COc1cc(SC)ccc1C(=O)OCc1nc2ccsc2c(=O)[nH]1", "hERG current change (%, negative = inhibition) at 1uM": -15.2}
{"smiles": "C=Cn1ccnc1P(=S)(c1cc(N(CC)CC)ns1)c1nccn1C=C", "hERG current change (%, negative = inhibition) at 1uM": 3.97}
{"smiles": "CCOc1ncccc1C(=O)OCC(=O)Nc1ccc(S(=O)(=O)N2CCCC2)cc1", "hERG current change (%, negative = inhibition) at 1uM": -2.76}
{"smiles": "CC1(C)Cc2c(sc3c2c(=N)n(Cc2ccco2)c(=O)n3Cc2ccccc2)CO1", "hERG current change (%, negative = inhibition) at 1uM": 3.6}
{"smiles": "O=C(CSc1n[nH]c(-c2ccco2)n1)Nc1sc2c(c1C(=O)Nc1ccccc1)CCCC2", "hERG current change (%, negative = inhibition) at 1uM": 12.1}
{"smiles": "O=C(Nc1ccc(Br)c(Cl)c1)c1ccco1", "hERG current change (%, negative = inhibition) at 1uM": 10.6}
{"smiles": "CC(C)c1ccc(S(=O)(=O)N2CCN(C(=O)c3ccc(N4CCCC4)c([N+](=O)[O-])c3)CC2)cc1", "hERG current change (%, negative = inhibition) at 1uM": -15.8}
{"smiles": "CN(C)CCOC(=O)CC12CC3CC(C1)CC(CC(=O)OCCN(C)C)(C3)C2.Cl", "hERG current change (%, negative = inhibition) at 1uM": 12.2}
{"smiles": "O=C(CN1C(=O)COc2ccc(S(=O)(=O)N3CCCCC3)cc21)NCc1ccc(F)cc1", "hERG current change (%, negative = inhibition) at 1uM": 20}
{"smiles": "Cc1ccc(S(=O)(=O)CCC(=O)OCC(=O)c2cc(C)ccc2C)cc1", "hERG current change (%, negative = inhibition) at 1uM": 0.672}
{"smiles": "CCn1c(=O)c2c(nc(SCC(=O)N3CCCC(C)C3)n2C)n(C)c1=O", "note": "(centres unmarked)", "hERG current change (%, negative = inhibition) at 1uM": 9.74}
{"smiles": "O=C(Oc1ccccc1F)c1ccc2c(=O)n3c(nc2c1)CCC3", "hERG current change (%, negative = inhibition) at 1uM": 11.2}
{"smiles": "COc1ccc(N2CCN(C(=O)CC(C)S(=O)(=O)c3ccc4c(c3)NC(=O)CO4)CC2)cc1", "note": "(centres unmarked)", "hERG current change (%, negative = inhibition) at 1uM": 5.4}
{"smiles": "O=[N+]([O-])c1ccc(O)c(/C=N/Nc2ncnc3c2cnn3-c2ccccc2)c1", "hERG current change (%, negative = inhibition) at 1uM": 15.9}
{"smiles": "O=C(CSc1nnc(C2CC2)n1C1CC1)c1ccc(F)cc1", "hERG current change (%, negative = inhibition) at 1uM": 5.71}
{"smiles": "Cc1nc2c(C(=O)N3CCCCC3)cnn2c(C)c1Cc1ccccc1F", "hERG current change (%, negative = inhibition) at 1uM": 2.82}
{"smiles": "COc1cccc(CNC(=O)CSc2nc(=O)n(Cc3ccncc3)c3c2CCC3)c1", "hERG current change (%, negative = inhibition) at 1uM": 14.8}
{"smiles": "CN1CCN(CC(=O)O)CC1", "hERG current change (%, negative = inhibition) at 1uM": -2.82}
{"smiles": "Cc1ccccc1NS(=O)(=O)c1ccc(OCC(=O)N2CCCC2)cc1", "hERG current change (%, negative = inhibition) at 1uM": -3.55}
{"smiles": "O=C(Nc1ccc(Oc2ccc(C(F)(F)F)cn2)c(Cl)c1)C1CC1", "hERG current change (%, negative = inhibition) at 1uM": 12.5}
